Test results published in PubChem BioAssay AID624296 (National Center for Advancing Translational Sciences (NCATS), 2012).
The whole screen tested about 350,000 compounds, of which about 9,900 (2.8%) were called active. The inconclusive results got no clear call from the source; some entries with a clear call stand among them for comparison. The call rests on the fitted dose curve; in most records, active means well fitted activation curve with a large enough effect; inconclusive means small, poorly fitted or top-dose-only effect; inactive means no such curve, though single readings can be large or run the other way. Potencies of inconclusive entries are left out as doubtful fits.

Assay: A quantitative high throughput screen for small molecules that induce DNA re-replication in MCF 10a normal breast cells. Further: nearly all actives have a fitted effect of over 50% in size. On activity, positive = re-replication: % of control where 0% means no effect.
Settings: MCF 10A DNA re-replication, Hoechst nuclear intensity, 48 h; activity, positive = re-replication: at 46.1 µM (top of the series)
Potency means the concentration at half of the fitted maximal effect; tags describe the fitted curve by direction and shape.

SMILES	Potency	activity, positive = re-replication
CC(=O)c1ccc(N2CCN(CC(O)COC(c3ccccc3)c3ccccc3C)CC2)cc1 (stereo not given)	inconclusive [activator, single point]	–
O=C(C1CCC(CNS(=O)(=O)c2cccc3cccnc23)CC1)N1CCc2ccccc21 (stereo not given)	inconclusive [activator, partial curve, poor fit]	–
COc1ccc(N2C(=O)c3ccc(C(=O)OC(C)C)cc3C2=O)cc1	inconclusive [activator, full curve, poor fit]	–
CC1(C)c2[nH]c3ccccc3c2C[C@@H]2C(=O)N(Cc3ccco3)C(=O)N21	inconclusive [activator, single point]	–
CC(=O)Nc1ccc(Nc2cc(C)nc3c(-c4ccccc4)c(C)nn23)cc1	–	inactive: -6.83%
CNC(=O)c1cc(Nc2nnc(-c3ccc(C)c(S(N)(=O)=O)c3)c3ccccc23)ccc1OC	–	inactive: -1.57%
Cc1nc(-c2ccccn2)nc(N2CCOCC2)c1Cl	–	inactive: 2.2%
Cc1cc(C)cc(NC(=O)COc2coc(CN3CCc4ccccc4C3)cc2=O)c1	–	inactive: 9.48%
CCC(C)NC(=O)c1ccc(NS(=O)(=O)c2ccc3[nH]c(=O)[nH]c3c2)cc1 (stereo not given)	inconclusive [activator, single point]	–
COc1cc(O)c(C(CCN2CCCCC2)c2cc(OC)c(OC)c(OC)c2)c(OC)c1 (stereo not given)	inconclusive [activator, full curve, poor fit]	–
O=C(NC(=O)c1cnccc1C(F)(F)F)Nc1ccccc1	–	inactive: -1.01%
COc1cc(-c2nc3ccc(N4CCN(C)CC4)cc3[nH]2)cc(OC)c1OC	inconclusive [activator, single point]	–
C=CCN1C(=O)C(Cc2ccccc2)S/C1=N/N=C/c1cccs1 (stereo not given)	inconclusive [activator, partial curve, poor fit]	–
CC1CCCC(C)N1/N=C/c1ccc(Cl)cc1 (stereo not given)	inconclusive [activator, single point]	–
COc1ccc(O)c(/C=N/NC(=S)Nc2cccnc2)c1	inconclusive [activator, single point]	–
COC(=O)CSC(=S)N1CCCC(C)C1 (stereo not given)	inconclusive [activator, partial curve, poor fit]	–
C/C(=N/OCC(=O)Nc1ccccc1)c1cccs1	–	inactive: -1.2%
COc1ccc(OC)c(NS(=O)(=O)c2ccc(NC(C)=O)cc2)c1	inconclusive [activator, single point]	–
CCCOc1ccc2oc(=O)c3c(c2c1)CCCN3C(=O)CN1CCc2ccccc2C1	inconclusive [activator, single point]	–
CCN1CCn2c3c(c4cccc(C)c42)CCCC31 (stereo not given)	inconclusive [activator, single point]	–
Cc1sc2ncnc(SCC(=O)N(C)C3CCS(=O)(=O)C3)c2c1C (stereo not given)	–	inactive: -0.496%
O=C(N/N=C/c1c(O)ccc2ccccc12)c1cccnc1	inconclusive [activator, single point]	–
O=[N+]([O-])c1ccc(N2CCN(C(=S)Nc3ccc(F)cc3)CC2)cc1	–	inactive: 8.52%

SMILES	Potency	activity, positive = re-replication
Cc1cc(S(=O)(=O)n2ccnc2)c(Cl)cc1Cl	inconclusive [activator, single point]	–
Fc1cccc(Cl)c1CSc1nnc(-c2ccncc2)o1	–	inactive: -12.7%
O=C(Nc1ccc(Cl)c(Cl)c1)OCc1cccnc1	inconclusive [activator, single point]	–
COc1cccc(OCC(O)CN2CCC(CN3C(=O)c4cccc5cccc(c45)C3=O)CC2)c1 (stereo not given)	inconclusive [activator, single point]	–
Cc1ccc(NC(=O)C(NC2CCCC2)c2ccccc2)cc1Cl (stereo not given)	inconclusive [activator, single point]	–
COc1cc(NC(=O)CSc2nnc(-c3ccncc3)o2)cc(OC)c1OC	–	inactive: 0.117%
O=C(CSc1ccc(Br)cc1)NC1CCCCCC1	inconclusive [activator, single point]	–
CN(Cc1cn(C)nc1-c1cccc(Cl)c1)Cc1nccn1C	–	inactive: -1.42%
O=C(COC(=O)C1CC2C=CC1C2)Nc1ccc2c(c1)OC(F)(F)O2 (stereo not given)	inconclusive [activator, full curve, poor fit]	–
CN(CCOC(=O)/C=C/c1ccccc1)C(C)(C)C	–	inactive: -2.03%
CC(C)(C)NC(=O)NC(=O)CN1CCC(Cc2ccccc2)CC1	inconclusive [activator, single point]	–
Cc1ccn2c(-c3n[nH]c(=S)n3C)c(C)nc2c1	–	inactive: -0.583%
CCCCc1nc(NCc2ccccc2)c(C#N)c2c1CCCC2	inconclusive [activator, partial curve, poor fit]	–
Cc1ccc(C)[n+](CC(=O)c2ccc(-c3ccccc3)cc2)c1	inconclusive [activator, single point]	–
COc1ccc(CNC(=O)c2cc(SC)ccc2Cl)cc1OC	inconclusive [activator, partial curve, poor fit]	–
Cc1cccc(-c2oc3ccc(-c4ccc5c(c4)OCO5)cc3c2C(=O)OCc2ccc(O)cc2)c1	inconclusive [activator, partial curve, poor fit]	–
CCN(CC)C(=O)CSC(=Nc1ccccc1F)NC#N	–	inactive: 2.72%
CCOC(=O)C1CCN(C2CCN(Cc3nc(-c4ccccc4)no3)CC2)CC1	inconclusive [activator, full curve, poor fit]	–
COc1cc2c(cc1O)CC[C@@H]1[C@@H]2CC[C@]2(C)[C@@H](O)CC[C@@H]12	inconclusive [activator, partial curve, poor fit]	–
COC(=O)c1ccc(-c2ccc(/C=N/N3C(=O)C4C5C=CC(C6CC56)C4C3=O)o2)cc1 (stereo not given)	inconclusive [activator, partial curve]	–
Clc1ccccc1N1CCN(Cc2ccco2)CC1	–	inactive: 1.59%
Cc1ccc(-n2c(C)nnc2SCC(=O)N(C)c2c(N)n(Cc3ccccc3)c(=O)[nH]c2=O)cc1	–	inactive: -4.92%
